Numbering of substitutions follows the chain as printed. The list shows a part of the results.

First the molecules themselves.
T1: UNK ZnF1-3 (human, UniProt Q9C0B0 31-174)
T1 sequence: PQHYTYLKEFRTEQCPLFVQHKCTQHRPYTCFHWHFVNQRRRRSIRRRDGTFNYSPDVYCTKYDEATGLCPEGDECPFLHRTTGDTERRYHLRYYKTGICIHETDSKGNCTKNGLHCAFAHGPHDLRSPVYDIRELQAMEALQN

B1: chr18:35731848:35731849:+_ENSMUSG00000037236_ENSMUST00000166793|perfect_dup|FALSE|FALSE (ssRNA)
RNA: GGGAGUUCUACAGUCCGACGAUCCAGUGCACUAUGAGCUCCUUGUUGAUUCAAUGAAGAACUCAUUCCAAGAUUCAUUAAACUAGCAAGGCGUGCAGUACCCUGGUUCAUCCUUCCAAGAGAUGCUGGCAUACUUAAAGACUGCAACAGAGGAUUGAGCAUCA
B2: 32390466_32390586_7011_3pUTR_ENSMUSG00000053774_ENSMUST00000115151|mouse|control|control (ssRNA)
RNA: GGGAGUUCUACAGUCCGACGAUCAAAAAUGAGAAAUAUACAUUAAGGCUUAGAAAUAUAAUUUUAAAAGCAUAGCUAAGUGUCUUAAAUUUCAUGACCAAUUUUAGAGGAAUUAAGUAAAGAAUGAAGAAGAGACAGGCAUGUCAACAGAGGAUUGAGCAUCA
B3: 121125820_121125940_1475_CDS_ENSMUSG00000027254_ENSMUST00000094639|mouse|control|control (ssRNA)
RNA: GGGAGUUCUACAGUCCGACGAUCAAUCUUCUCAGUAGGGUUGGCUGGGAGCCAUACCACCAAGGCAGUGAUGGAGGUCAGGUAGGGGACGGAGAUCUCUGCCUCCUUCCCAUUGGCCAGCACUAUGCCUGUCUUGGCUUUACUCAACAGAGGAUUGAGCAUCA
B4: chr2:91395433:91395434:+_ENSMUSG00000040549_ENSMUST00000099716|mus_hu|FALSE|FALSE (ssRNA)
RNA: GGGAGUUCUACAGUCCGACGAUCUGGCUUAAGCAAGAUGAUUUUGGAACCAAAUUCACUUAAGGCUUUCCUCAGUGUCUCUAUACAGGCCACUAUGAUCUUGGGAUUCUUAUUGUCCAAGCCUUUCAGGAGCUCUUCUUGAACCAACAGAGGAUUGAGCAUCA
B5: chr1:94914635:94914636:-_ENSMUSG00000014602_ENSMUST00000171796|mus_mus|FALSE|FALSE (ssRNA)
RNA: GGGAGUUCUACAGUCCGACGAUCGAAGGGGGGAUAGGAGAAGGUAGCUCCACAUGAACCUUACAGCCCUACCUGGAGGCAUUAGAAAUAAAUACUUAUAAACAGAACACAGUCUUAUAGUUAAUGUCUCAGAGGACUGUUUCACAACAGAGGAUUGAGCAUCA
B6: chr12:39756943:39756944:-_ENSG00000139116_ENST00000544797|hu_mus|hu_hu_hu_mus_False|8_98 (ssRNA)
RNA: GGGAGUUCUACAGUCCGACGAUCGGUUUGGCUGUUACCCCCGAGGGAAUCCUGCAAGAGUCUUGUCAGCUUAGAGUCUCUGUAAGGGACAUGGGUGGCUCUCUUGCUCUUGUCCCCCAAGGCGCUGAUUACAUUGCCAAGAGCCAACAGAGGAUUGAGCAUCA
B7: chr2:55462594:55462595:+_ENSG00000143947_ENST00000402285|hu_hu|motif|central (ssRNA)
RNA: GGGAGUUCUACAGUCCGACGAUCUGCCAUAAACACCCCAGCACCACAUUCAUCAGAAGGGCACUCUCGACGAAGGCGACGGAUUUUGCCAUUCUCAUCCACCUUAUAAUAUUUCAGGACAGCCAGCUUAACCUUCUUUCUCUUCAACAGAGGAUUGAGCAUCA
B8: 90179398_90179518_1584_CDS_ENSG00000171488_ENST00000370454|human|control|control (ssRNA)
RNA: GGGAGUUCUACAGUCCGACGAUCAAUGGUGGCUGGUAUCAUUACGUUCUUAAUGAUUUCAAGUUUUAGAGAUUGCAACUCUGUGAUUUCAAAAACAGUGUCUGGAAGGCCAGAGAGCAUGAUAAGAGGCAAUUCCAGUCGAUUCAACAGAGGAUUGAGCAUCA
B9: chr17:64801638:64801639:+_ENSG00000154229_ENST00000413366|hu_mus|hu_hu_hu_mus_False|38_78 (ssRNA)
RNA: GGGAGUUCUACAGUCCGACGAUCUAUAUAUAUAUAUACAUAUGUACACAUAUAUAGUAAGAGCCUAGUUAAACGUGUAAAGUAGCCAUUCAUUUUUGAAAUUUUAUCUACAUUAAAAAAUUAAUAUAUCUGAUAGAGUGCCAGCAACAGAGGAUUGAGCAUCA
B10: chr8:42227462:42227463:+_ENSG00000070501_ENST00000265421|hu_hu|FALSE|FALSE (ssRNA)
RNA: GGGAGUUCUACAGUCCGACGAUCUUCUCCUGCAACUCCAGUGACUCCCAAGGGACGGAUGGUGUACUCAUUGAUUGUGAAACCCUUUUCUAGGGCAUGAGCCCUCAUAUUCUUAUUGAAAAUAUCACUCCCAGUGAAAUAGAGCAACAGAGGAUUGAGCAUCA
B11: chr3:55808730:55808731:-_ENSMUSG00000027799_ENSMUST00000029374|mus_hu|motif|central (ssRNA)
RNA: GGGAGUUCUACAGUCCGACGAUCUGAAGUUGUAUGGAUUUUGAAUUCUUUUUCUUCUAUUAUACUGGAUGUACAAGUUAAGUCGGCGCUACCGGUCAUGUGAGCAAGCAAUCCAAGAUCAUCACUAACACCAAGAUGUACUUGCAACAGAGGAUUGAGCAUCA
B12: chr11:95532483:95532484:+_ENSG00000166037_ENST00000540830|hu_hu|motif|central (ssRNA)
RNA: GGGAGUUCUACAGUCCGACGAUCGCUGUUGCUUUCUGGAUAGGCAAGUGUAGGCUUACUUGGGGAGCGUCGUAGAUCACGGUUAAGGAAAGGCUUAUCCGAAGGAUAUACUACAUAUGGAGAUGAAGAAUGCCGAACCAUGCUCAACAGAGGAUUGAGCAUCA
B13: chr7:148072430:148072431:+_ENSMUSG00000025487_ENSMUST00000026560|mus_hu|FALSE|FALSE (ssRNA)
RNA: GGGAGUUCUACAGUCCGACGAUCAAAGUAAGAGCCACAUUAGGAUCAGUCAUCUGUCUAACUACAUGAAGAAUGAUUUCCACGAGGGACAAAGGGUUCACCCUUAAUGAGACCAUCUCCUUGGGCAAAGCACGGAUCCUGCACCAACAGAGGAUUGAGCAUCA
B14: chr5:23024286:23024287:-_ENSMUSG00000062604_ENSMUST00000088392|mus_hu|FALSE|FALSE (ssRNA)
RNA: GGGAGUUCUACAGUCCGACGAUCACACGCCGUGCUCCAGAUGUCCGCAGGGGUGCUGUACCCCGCUCCUAUUAAAACCUCUAUGGAGCGGUACUGACGCGUCUGGAUGUCUUCCGUGAAGUGUUUAUGCACCCAACAAGCAUUCAACAGAGGAUUGAGCAUCA
B15: chrX:39613801:39613802:+_ENSMUSG00000025862_ENSMUST00000069619|mus_hu|motif|central (ssRNA)
RNA: GGGAGUUCUACAGUCCGACGAUCCAAAUUUAAAGGUGGAUGGCUCUCCCCUUGCGGAUUAGGCUCUUUAAAAGCAAAUUCGGUGCCAUCUUUGUGUAGCAUGGCAAUGGCUUCUCUUGUUUUCAACUGAUCAAGUCCAAAAGUCAACAGAGGAUUGAGCAUCA
B16: chr4:144460044:144460045:+_ENSG00000153147_ENST00000283131|hu_mus|hu_hu_hu_mus_False|48_48 (ssRNA)
RNA: GGGAGUUCUACAGUCCGACGAUCACGGUCCAUAGCCUGAAGAUCAACUUGCGGAUUCCAAUCUGAGUCAUAUAAAAUGACUACAUCAGCAGUCGCAAGAUUGAUGCCCAGACCACCAGCACGUGUGCUUAGCAUAAAUACAAACAACAGAGGAUUGAGCAUCA
B17: chr4:134969704:134969705:-_ENSMUSG00000059713_ENSMUST00000030606|mus_hu|FALSE|FALSE (ssRNA)
RNA: GGGAGUUCUACAGUCCGACGAUCUUUUCCACUGCUUAAUUAUGUGUGAGAUUUUCCCUUUUAAAAUAAAUCUAUGGUCUGUGAAAUAGUCUGUAUAAAAAUAUGAAGCCUUGAAUAGGCCAGUCAUAGCAGUUCCGUCUUGAACAACAGAGGAUUGAGCAUCA
B18: chr3:148479741:148479742:-_ENSMUSG00000028184_ENSMUST00000106128|mus_hu|FALSE|FALSE (ssRNA)
RNA: GGGAGUUCUACAGUCCGACGAUCUUAAAGCCUACGUCUUGUAUAUAAUACAAUGCAGGCCUACAAAAAUGGUGCAGCCAUAUUUACAAAUUUAGUUCACAGACUGCUGCAGUAAAAUGGCUGGAAAGUUUUGUUUUGCUUGUUCAACAGAGGAUUGAGCAUCA
B19: chr1:225977196:225977197:+_ENSG00000143742_ENST00000304786|hu_mus|motif|central (ssRNA)
RNA: GGGAGUUCUACAGUCCGACGAUCAUUCCGUUUCCAAAAAUAAAGGUUUUCUAACUGGAAACCCCGACAUUCCUACUCUCGGAAGCAAACUUUAGGACGCAGGCUGGUCUCUCGGCUUUGACAGCUCCAUUACGUAAGUAUAUCCAACAGAGGAUUGAGCAUCA
B20: chr3:139257661:139257662:-_ENSG00000114115_ENST00000232219|hu_mus|FALSE|FALSE (ssRNA)
RNA: GGGAGUUCUACAGUCCGACGAUCCACACACUGGAGUUUGUCACCAUCCCAGCUCACAGUGGUCAUGCACUUGCGGUCGUCUAUGCCUGUCAGAUCUUCCUCAAACUCCUUCCCAACUUGGAAGUCCAUGAUAUAGUUCCGAAACAACAGAGGAUUGAGCAUCA
B21: chr5:125867735:125867736:-_ENSMUSG00000008348_ENSMUST00000136312|mus_mus|motif|central (ssRNA)
RNA: GGGAGUUCUACAGUCCGACGAUCGGUUUUGCCUGUCAGGGUCUUCACAAAGAUCUGCAUCCCACCUCUGAGGCGAAGGACGGAGUGCAGGGUGGACUCUUUCUGGAUGUUGUAGUCUGACAGGGUGCGGCCAUCUUCCAGCUGCAACAGAGGAUUGAGCAUCA
B22: chr12:39756943:39756944:-_ENSG00000139116_ENST00000544797|hu_mus|hu_hu_hu_mus_False|1_98 (ssRNA)
RNA: B6 RNA with G135C, A141U

For this assay, the target named is T1, UNK ZnF1-3. The assay can be described thus: nsRBNS (natural sequence RNA bind-n-seq); RBNS binding buffer (assumed for nsRBNS): 25 mM Tris pH 7.5, 150 mM KCl, 3 mM MgCl2, 0.01% Triton X-100, 500 ug/ml BSA, 20 U/ml SUPERase-In, 4 C; UNK is unkempt and MSI1 is Musashi-1; names of the RNAs are library labels; protein concentration not given here; high values mean tight binding.
On to B1, for which the binding signal amounted to 0.662 enrichment R.

Regarding B2, the binding signal came to 1.96 enrichment R.

Take B3: the binding signal turned out to be 0.385 enrichment R.

B4: the binding signal was found to be 0.721 enrichment R.

On to B5, for which the binding signal came out at 1.06 enrichment R.

Regarding B6, the binding signal is 0.587 enrichment R.

B7 showed a binding signal of 1.3 enrichment R.

In turn, B8 gave a binding signal of 1.1 enrichment R.

In the case of B9, the binding signal worked out at 2.88 enrichment R.

Molecule B10 came in with a binding signal of 1.18 enrichment R.

Consider B11, for which the binding signal worked out at 0.871 enrichment R.

In turn, B12 came in with a binding signal of 1.19 enrichment R.

The molecule B13 yielded a binding signal of 1.35 enrichment R.

The molecule B14 had a binding signal of 0.868 enrichment R.

As for B15, the binding signal was found to be 0.899 enrichment R.

In turn, B16 returned a binding signal of 0.633 enrichment R.

B17 returned a binding signal of 1.61 enrichment R.

In the case of B18, the binding signal amounted to 0.526 enrichment R.

Molecule B19 had a binding signal of 1.07 enrichment R.

B20 yielded a binding signal of 0.87 enrichment R.

On to B21, for which the binding signal was found to be 0.652 enrichment R.

With B22, the binding signal was found to be 0.542 enrichment R.

Values taken from paper PMC12136788.
